Measurements: PubChem BioAssay AID1345083 (National Center for Advancing Translational Sciences (NCATS), 2018)
About 6,200 (6.6%) of roughly 94,000 compounds were called active. Inconclusive results, whose numbers are uncertain, are shown with a selection of clear calls. The call rests on the fitted dose curve; in most records, active means well fitted inhibition curve with a large enough effect; inconclusive means small, poorly fitted or top-dose-only effect; inactive means flat fitted curve, though single readings scatter. Where the call is inconclusive, the potency comes from a doubtful curve fit.

Experiment: Cytotoxic Profiling in HEK 293 Cell Line of Diverse Libraries Using Quantitative High-Throughput Screening; further: nearly all actives have a fitted effect of over 60% in size
Settings: HEK 293 viability, ATP luminescence (CellTiter-Glo), 48-72 h; series mostly up to 115 µM
Procedure, shortened: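 Pintool-delivered compounds were incubated with HEK 293 cells (250 cells/well) at 37 degree Celsius for 48 or 72 hr. ATP-dependent luminescence (CellTiter-Glo) then reported remaining viable cells.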
Potency means the concentration at half of the fitted maximal effect; tags describe the fitted curve by direction and shape.

SMILES | Potency
COc1cccc(C(=O)N2CCN(C(=O)c3nc4cccnc4n(C4CC4)c3=O)CC2)c1 | inactive
COC[C@@H]1[C@H](C(=O)NCCC2=CCCCC2)CCC(=O)N1C | inactive
CC1(c2cccnc2)N(Cc2ccccc2)C(=O)OC12CCN(C(=O)C1CCOCC1)CC2 (stereo not drawn) | inactive
O=C(NCc1cccs1)c1ccc2nnc(Cc3ccco3)n2c1 | inactive
O=C(c1ccccc1F)N1CCCN(c2ccc3nnc(-c4ccccc4)n3n2)CC1 | inconclusive: 89.1 µM [inhibitor, single point]
O=C(NCc1ccc(F)cc1)c1ccc2oc(-c3ccncc3)nc2c1 | inconclusive: 44.7 µM [inhibitor, partial curve, poor fit]
CC(C)NC(=O)N1CCC2(CC1)CN(C(=O)c1cccc3[nH]ccc13)Cc1ccccc1O2 | inconclusive: 22.4 µM [inhibitor, partial curve, poor fit]
CC(C)CNC(=O)Cc1ccc(N(Cc2ccccc2)C(=O)c2ccco2)cc1 | inconclusive: 100 µM [inhibitor, partial curve, poor fit]
CC(=O)Nc1ccc(NC(=O)Cn2ccn3nc(-c4ccccc4)c(CO)c3c2=O)cc1 | inconclusive: 100 µM [inhibitor, single point]
CCc1cccc(NC(=O)N2CCCC(c3noc(COc4ccccc4)n3)C2)c1 (stereo not drawn) | inconclusive: 50.1 µM [inhibitor, partial curve, poor fit]
Cc1cc(C(=O)NCC2Cn3cccc3C(=O)N2CC(C)C)n(C)n1 (stereo not drawn) | inactive
CCn1ncc(-c2nc3cc(S(=O)(=O)N4CCCC4)ccc3n2C)c1C | inconclusive: 89.1 µM [inhibitor, single point]
C#CCNC(=O)C1CCN(c2nccc(Nc3ccc(C)cc3)n2)CC1 | active: 50.1 µM
COc1ccc(F)cc1-c1cccc(C(=O)NCC(=O)NCCc2cccc(F)c2)c1 | active: 39.8 µM
COc1ccc(Nc2ccc3c(n2)CN(Cc2ccc(C(F)(F)F)cc2)C(=O)CO3)cn1 | inconclusive: 50.1 µM [inhibitor, partial curve, poor fit]
Cc1nc(C)c(C(=O)NCC23CCCC=C2NC(=O)CC3)s1 (stereo not drawn) | inactive
O=C1CO[C@H]2CN(Cc3ccc(C(F)(F)F)cc3)C[C@H]2N1 | inconclusive: 126 µM [inhibitor, single point]
NC(=O)[C@@H]1CN(Cc2ccccn2)C[C@H]1COc1ccccc1 | inactive
Cc1cc(C)cc(-c2ccc(CN3CCCC3C(=O)NCc3ccc4c(c3)OCO4)cc2)c1 (stereo not drawn) | active: 50.1 µM
Cc1ccc(C(=O)N2CC(CN3C(=O)c4c(c(C)nn4-c4ccccc4)C3C3CC3)C2)cc1 (stereo not drawn) | inconclusive: 50.1 µM [inhibitor, partial curve, poor fit]
CO[C@H]1[C@H](NC(=O)c2cc(CC(C)C)no2)c2ccccc2C12CCNCC2 | inconclusive: 89.1 µM [inhibitor, single point]
O=C(C1CCCN1C(=O)c1ccccc1F)N1CCC(N2Cc3ccccc3C2=O)CC1 (stereo not drawn) | inactive

SMILES | Potency
COc1ccc(-c2cn3c(n2)N(C(=O)Cc2cccs2)CCC3)cc1 | inconclusive: 70.8 µM [inhibitor, partial curve, poor fit]
Cc1ccccc1-n1cc(CN(C)Cc2nc(-c3ccc(C(F)(F)F)cc3)no2)cn1 | inconclusive: 89.1 µM [inhibitor, single point]
CC(=O)Nc1ccc(CN2CCCC3(CC(c4cccc(C(F)(F)F)c4)=NO3)C2)cc1 (stereo not drawn) | inconclusive: 50.1 µM [inhibitor, partial curve, poor fit]
COc1ccc2[nH]c3c(c2c1)CCN(C)C31CCN(C(=O)CC(C)C)CC1 | inconclusive: 56.2 µM [inhibitor, partial curve, poor fit]
COc1ccnc(N2CC[C@H](c3nnc(-c4ccc(N(C)C)cc4)o3)C2)n1 | inconclusive: 70.8 µM [inhibitor, full curve, poor fit]
Cc1cnc(C2CC2)n1CCNC(=O)C1CC1 | inactive
COc1ccc(-n2c(CCN)n[nH]c2=O)c(C)c1 | inactive
COc1ccc(CN2C=C(C(=O)OCc3nc(-c4cccs4)no3)C(C)=NS2(=O)=O)cc1 | inconclusive: 35.5 µM [inhibitor, full curve, poor fit]
CCc1noc(-c2cn(C3CCN(C(=O)c4ccc(C)cc4)C3)nn2)n1 (stereo not drawn) | inactive
Cc1cc(C)n(CC(=O)N2CCCC(C)(Cc3ccc4c(c3)OCO4)C2)c(=O)n1 (stereo not drawn) | inactive
CCOc1ccccc1C(=O)N[C@@H]1CN(c2ccncn2)C[C@H]1CO | inactive
COCc1ccc2c(c1)c(OC(C)(C)C(=O)Nc1ccn(C)n1)nn2Cc1cccc(OC)c1 | inconclusive: 56.2 µM [inhibitor, partial curve, poor fit]
COc1ncccc1-c1cnc2[nH]cc(CC(=O)N3CCOCC3)c2c1 | inconclusive: 89.1 µM [inhibitor, partial curve, poor fit]
CC(C)CNc1ccc2c(n1)C(C)(C(=O)NC1CCN(C)CC1)CN(Cc1ccccc1)C2 (stereo not drawn) | inconclusive: 50.1 µM [inhibitor, partial curve, poor fit]
O=C(Nc1cccc(Cl)c1)C1CCCN(Cc2cccc(-c3cccs3)c2)C1 (stereo not drawn) | active: 39.8 µM
O=C(NCc1ccccn1)C1c2ccccc2C(=O)N(C2CCCCC2)C12CCCCC2 (stereo not drawn) | active: 25.1 µM
CN1CCCN(S(=O)(=O)c2cccs2)c2ccccc21 | inconclusive: 56.2 µM [inhibitor, partial curve, poor fit]
Cc1noc2c(-c3ccc(N4CCOCC4)cc3)cc(-c3ccccc3)nc12 | inconclusive: 89.1 µM [inhibitor, partial curve]
O=C(NC1CCCC1)N1CCC(C(=O)N2CCC(N3Cc4ccccc4C3=O)CC2)CC1 | inactive
CCC(c1cnn(C)c1)n1ccnc1-c1ccc(SC)cc1 (stereo not drawn) | inconclusive: 89.1 µM [inhibitor, single point]
O=C1CC(c2ccccc2)N(Cc2ccncc2)CCCN(S(=O)(=O)c2cccnc2)CCN1 (stereo not drawn) | inactive
